Counter-ions that a name gives are not always drawn. ± gives the standard deviation of the averaged measurements. The list shows a part of the results. Repeats are few or missing, and single values can be far off.
Tests used:
Assay in all cases: log2 surviving fraction relative to plate median (drug vs vehicle, or drug+dl922-947 vs dl922-947 alone); ovarian cancer lines: OVCAR4 is platinum-sensitive while Ov4Cis resists cisplatin and Ov4Carbo carboplatin; higher = more cell survival
Conditions in all cases: compound concentration: 10 uM, 192 h
OVCAR4 = tested on: OVCAR4
Ov4Carbo = tested on: Ov4Carbo
Ov4Cis = tested on: Ov4Cis
[1] = dl922-947 oncolytic adenovirus co-treatment: MOI 10
[2] = dl922-947 oncolytic adenovirus co-treatment: none

| SMILES | log2 surviving fraction (OVCAR4; [1]) | log2 surviving fraction (OVCAR4; [2]) | log2 surviving fraction (Ov4Carbo; [1]) | log2 surviving fraction (Ov4Carbo; [2]) | log2 surviving fraction (Ov4Cis; [1]) | log2 surviving fraction (Ov4Cis; [2]) |
| --- | --- | --- | --- | --- | --- | --- |
| CCOc1nc2cccc(C(=O)O)c2n1Cc1ccc(-c2ccccc2-c2nnn[nH]2)cc1 [Candesartan (Atacand)] | -0.287 ± 0.019 | -0.481 ± 0.1 | 0.107 | -0.852 | -0.904 | 0.00136 |
| C[C@H]1COc2c(N3CCN(C)CC3)c(F)cc3c(=O)c(C(=O)O)cn1c23 [Levofloxacin (Levaquin)] | 0.895 ± 0.44 | 0.377 ± 0.23 | -0.443 | 0.438 | -0.63 | 0.201 |
| CC1(C)[C@@H](O[C@H]2O[C@H](C(=O)O)[C@@H](O)[C@H](O)[C@H]2O[C@@H]2O[C@H](C(=O)O)[C@@H](O)[C@H](O)[C@H]2O)CC[C@]2(C)[C@H]3C(=O)C=C4[C@@H]5C[C@@](C)(C(=O)O)CC[C@]5(C)CC[C@@]4(C)[C@]3(C)CC[C@@H]12 [Ammonium Glycyrrhizinate (AMGZ)] | -0.53 ± 0.014 | -0.346 ± 0.19 | 0.464 | 0.707 | 0.554 | 0.416 |
| COc1ccc(C[C@@H]2c3cc(OC)c(OC)cc3CC[N@+]2(C)CCC(=O)OCCCCCOC(=O)CC[N@@+]2(C)CCc3cc(OC)c(OC)cc3[C@H]2Cc2ccc(OC)c(OC)c2)cc1OC [Cisatracurium besylate (Nimbex)] | -0.547 ± 0.94 | -1.17 ± 0.43 | -0.205 | -3.02 | -0.308 | -1.01 |
| C[N+](C)(C)C[C@H](O)CC(=O)[O-] [L-carnitine (Levocarnitine)] | -0.416 ± 0.63 | -0.00221 ± 1.2 | 0.637 | 0.0298 | 0.843 | 0.611 |
| O=C1NCC2(CCN(CCc3ccccc3)CC2)O1 [Fenspiride HCl] | 0.334 ± 0.64 | 0.346 ± 1.1 | 0.203 | -0.817 | 0.916 | 0.0431 |
| Cc1ccc(NC(=O)c2ccc(CN3CCN(C)CC3)cc2)cc1Nc1nccc(-c2cccnc2)n1 [Imatinib Mesylate] | 0.304 ± 0.51 | -2.3 ± 4 | 0.643 | 2.15 | 0.666 | 1.05 |
| NS(=O)(=O)c1cc2c(cc1Cl)NC(C(Cl)Cl)NS2(=O)=O (centres undefined) [Trichlormethiazide (Achletin)] | 0.97 ± 0.22 | 0.309 ± 0.049 | 0.572 | 0.457 | 0.283 | 0.319 |
| O=C(O)Cc1cc(I)c(Oc2ccc(O)c(I)c2)c(I)c1 [Tiratricol] | -0.204 ± 0.38 | -1.06 ± 0.22 | -0.322 | -1.1 | -0.485 | -1.24 |
| COc1c(C)c2c(c(O)c1C/C=C(\C)CCC(=O)O)C(=O)OC2 [Mycophenolic (Mycophenolate)] | -2.87 ± 1.1 | -5 ± 0.62 | -2.76 | -8 | -3.03 | -5.29 |
| CCc1cc2c(cc1CC)CC(NC[C@H](O)c1ccc(O)c3[nH]c(=O)ccc13)C2 [Indacaterol Maleate] | -1.87 ± 0.5 | -1.48 ± 1.2 | -1.47 | -1.05 | -4.79 | -2.29 |
| Nc1nc(=O)n([C@@H]2CS[C@H](CO)O2)cc1F [Emtricitabine (Emtriva)] | -0.00922 ± 0.36 | -0.189 ± 0.98 | 1.19 | 0.328 | 0.571 | -0.303 |
| O=c1ccn([C@@H]2O[C@H](CO)[C@@H](O)[C@H]2O)c(=O)[nH]1 [Uridine] | -0.794 ± 0.35 | -0.663 ± 0.58 | -0.954 | -0.0734 | -0.751 | -1.47 |
| CN(C/C=C/c1ccccc1)Cc1cccc2ccccc12 [Naftifine HCl] | -0.385 ± 0.2 | -0.155 ± 0.12 | 0.559 | -0.656 | 0.672 | -0.0884 |
| CCOC(=O)C1=C(C)NC(C)=C(C(=O)OC)C1c1cccc(Cl)c1Cl (centres undefined) [Felodipine (Plendil)] | -0.78 ± 0.7 | -0.823 ± 0.97 | -0.947 | -3.04 | 0.364 | -0.483 |
| O=C(CCCN1CCC(O)(c2ccc(Cl)cc2)CC1)c1ccc(F)cc1 [Haloperidol (Haldol)] | 0.154 ± 1.3 | -0.108 ± 0.47 | 0.547 | -2.02 | 1.03 | 2.02 |
| COc1cc2nc(N3CCN(C(=O)C4COc5ccccc5O4)CC3)nc(N)c2cc1OC (centres undefined) [Doxazosin mesylate] | -0.647 ± 0.88 | -1.16 ± 0.29 | -1.07 | -2.32 | -0.73 | -1.64 |
| COC(=O)CCc1ccc(OCC(O)CNC(C)C)cc1 (centres undefined) [Esmolol HCl] | -0.598 ± 0.39 | -0.36 ± 0.63 | 0.957 | -2.33 | 0.41 | -0.491 |
| COc1cc([C@@H]2c3cc4c(cc3[C@@H](O[C@@H]3O[C@@H]5CO[C@@H](c6cccs6)O[C@H]5[C@H](O)[C@H]3O)[C@H]3COC(=O)[C@H]23)OCO4)cc(OC)c1O [Teniposide (Vumon)] | -5.28 ± 0.45 | -7.46 ± 3.5 | -6.28 | -8.99 | -7.19 | -11.7 |
| CCC1=C(C)CN(C(=O)NCCc2ccc(S(=O)(=O)NC(=O)N[C@H]3CC[C@H](C)CC3)cc2)C1=O [Glimepiride] | 0.198 ± 0.45 | 0.451 ± 0.63 | 0.15 | 0.07 | -0.48 | 0.159 |
| NS(=O)(=O)c1cc(C(=O)O)c(NCc2ccco2)cc1Cl [Furosemide (Lasix)] | 0.122 ± 0.53 | 0.185 ± 0.0069 | 0.81 | 0.739 | -0.0941 | 0.367 |
| CC1CCc2c(N3CCC(O)CC3)c(F)cc3c(=O)c(C(=O)O)cn1c23 (centres undefined) [Nadifloxacin] | -0.279 ± 0.35 | 0.0106 ± 0.62 | -1.04 | 0.677 | -0.441 | -0.0825 |
| CO/N=C(\C(=O)N[C@@H]1C(=O)N2C(C(=O)O)=C(CSC(=O)c3ccco3)CS[C@H]12)c1csc(N)n1 [Ceftiofur hydrochloride] | -0.611 ± 0.14 | 0.137 ± 0.2 | 0.0419 | -0.945 | 0.206 | -0.208 |
| CC(O)(CS(=O)(=O)c1ccc(F)cc1)C(=O)Nc1ccc(C#N)c(C(F)(F)F)c1 (centres undefined) [Bicalutamide (Casodex)] | -0.613 ± 0.55 | 2.71 ± 3.7 | -0.0681 | -0.348 | 0.0669 | 0.125 |
| CCCSc1ccc2[nH]c(NC(=O)OC)nc2c1 [Albendazole (Albenza)] | -6.07 ± 1.2 | -6.83 ± 3.6 | -3.43 | -7.78 | -4.73 | -6.42 |
| O=C(O)c1cc(/N=N/c2ccc(S(=O)(=O)Nc3ccccn3)cc2)ccc1O [Sulfasalazine (Azulfidine)] | -0.366 ± 0.37 | -0.612 ± 0.12 | -0.301 | -0.0619 | -1.47 | -0.133 |
| N[C@H](Cc1ccccc1)C(=O)O [D-Phenylalanine] | 0.0302 ± 0.14 | -0.628 ± 0.66 | 0.845 | 0.75 | 0.453 | 0.324 |
| C=CCN1CC[C@]23c4c5ccc(O)c4O[C@H]2C(=O)CC[C@@]3(O)[C@H]1C5 [Naloxone HCl] | 0.845 ± 0.033 | 0.0025 ± 0.073 | -0.0153 | 1.37 | -0.195 | 1.17 |
| NCCNCCNCCNCCN [Tetraethylenepentamine 5HCl] | -0.995 ± 0.14 | -1.29 ± 1.2 | -1.1 | -3.61 | 0.272 | -0.145 |

— the supplement of paper PMC8813932
